Biological target: T1, rat NPR-A (Rattus norvegicus, UniProt P18910)
T1 construct: expressed in transfected cells; host or cells: CHO cell line stably expressing GCaMP6, co-transfected with CNGA2 and rat NPR-A
T1 sequence (P18910 29-1057): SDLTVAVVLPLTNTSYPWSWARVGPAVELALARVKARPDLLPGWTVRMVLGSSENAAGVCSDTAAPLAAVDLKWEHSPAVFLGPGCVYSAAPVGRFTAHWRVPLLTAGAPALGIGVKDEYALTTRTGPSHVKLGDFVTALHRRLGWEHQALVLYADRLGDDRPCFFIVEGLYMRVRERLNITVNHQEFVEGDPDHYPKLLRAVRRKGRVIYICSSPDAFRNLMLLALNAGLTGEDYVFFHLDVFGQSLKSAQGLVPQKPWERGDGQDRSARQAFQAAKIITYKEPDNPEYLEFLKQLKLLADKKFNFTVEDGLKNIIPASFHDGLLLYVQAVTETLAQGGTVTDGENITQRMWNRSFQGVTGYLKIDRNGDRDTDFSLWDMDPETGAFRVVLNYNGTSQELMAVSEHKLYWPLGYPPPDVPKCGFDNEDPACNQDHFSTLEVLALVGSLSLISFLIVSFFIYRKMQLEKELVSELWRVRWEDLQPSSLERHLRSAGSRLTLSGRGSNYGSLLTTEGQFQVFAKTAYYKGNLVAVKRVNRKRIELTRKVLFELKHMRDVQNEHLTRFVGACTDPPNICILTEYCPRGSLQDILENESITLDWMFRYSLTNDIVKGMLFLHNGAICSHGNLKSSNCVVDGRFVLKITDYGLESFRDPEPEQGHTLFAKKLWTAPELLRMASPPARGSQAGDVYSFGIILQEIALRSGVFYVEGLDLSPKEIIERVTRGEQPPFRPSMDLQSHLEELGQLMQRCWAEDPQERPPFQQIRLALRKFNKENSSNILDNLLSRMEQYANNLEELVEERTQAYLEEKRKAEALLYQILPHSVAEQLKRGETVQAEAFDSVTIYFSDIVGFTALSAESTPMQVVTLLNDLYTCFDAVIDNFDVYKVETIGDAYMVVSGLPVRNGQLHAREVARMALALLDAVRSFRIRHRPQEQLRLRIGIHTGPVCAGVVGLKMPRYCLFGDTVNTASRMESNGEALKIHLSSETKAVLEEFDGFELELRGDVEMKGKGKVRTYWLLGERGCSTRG
Assay: Fluorescence-based rat ANP receptor (NPR-A) GCaMP6/CNGA2 CHO reporter cell line
Conditions: tested up to the max. concentration of 460 nM
Method: After removal of the cell culture medium reporter cells were loaded for 20 min with Tyrode (130 mM NaCl, 5 mM KCl, 2 mM CaCl2, 20 mM HEPES, 1 mM MgCl2, 4.8 mM NaHCO3 at pH 7.4) containing a black masking dye at 37° C. and 5% CO2. IBMX (0.2 mM) was used to prevent cGMP degradation by endogenous phosphodiesterases.
Fluorescence measurements (3 min, kinetic mode) were directly started upon agonist addition. Receptor ligands were added in Tyrode containing a black masking dye and 0.1% BSA. Measurements were done on a FLIPR Tetra®.

- stimulation of the NPR-A cell line: did not significantly stimulate
B1: TPP-5657: empty antibody scaffold, negative control; SEQ ID NO 65 and SEQ ID NO 66 (antibody, listed as Homo sapiens)
heavy: [here about 100 residues without letters]LTGAEYFQHWGQGTLVTVSS[here human IgG1 constant region without letters]
light: QSVLTQPPSVSGAPGQRVTISCTGSSSNIGAGYDVHWYQQLPGTAPKLLIYGNSNRPSGVPDRFSGSKSGTSASLAITGLQAEDEADYYCQSYDSSLSGVVFGGGTKLTVLGQPKAAPSVTLFPPSSEELQANKATLVCLISDFYPGAVTVAWKADSSPVKAGVETTTPSKQSNNKYAASSYLSLTPEQWKSHRSYSCQVTHEGSTVEKTVAPTECS

— patent publication US12331094B2 (Bayer Aktiengesellschaft, priority 2018, dated 2025)
